The source of these data is article PMC1851384.

By UniProt entry, the sequences of proteins in these tests, tags left out. Where a name states a change or a piece, a line headed by the entry shows the natural chain unless it says otherwise. Chains listed by the source or under a name are the forms on record and can include a tag or linker. Residues count along the entry.
UniProt Q14680: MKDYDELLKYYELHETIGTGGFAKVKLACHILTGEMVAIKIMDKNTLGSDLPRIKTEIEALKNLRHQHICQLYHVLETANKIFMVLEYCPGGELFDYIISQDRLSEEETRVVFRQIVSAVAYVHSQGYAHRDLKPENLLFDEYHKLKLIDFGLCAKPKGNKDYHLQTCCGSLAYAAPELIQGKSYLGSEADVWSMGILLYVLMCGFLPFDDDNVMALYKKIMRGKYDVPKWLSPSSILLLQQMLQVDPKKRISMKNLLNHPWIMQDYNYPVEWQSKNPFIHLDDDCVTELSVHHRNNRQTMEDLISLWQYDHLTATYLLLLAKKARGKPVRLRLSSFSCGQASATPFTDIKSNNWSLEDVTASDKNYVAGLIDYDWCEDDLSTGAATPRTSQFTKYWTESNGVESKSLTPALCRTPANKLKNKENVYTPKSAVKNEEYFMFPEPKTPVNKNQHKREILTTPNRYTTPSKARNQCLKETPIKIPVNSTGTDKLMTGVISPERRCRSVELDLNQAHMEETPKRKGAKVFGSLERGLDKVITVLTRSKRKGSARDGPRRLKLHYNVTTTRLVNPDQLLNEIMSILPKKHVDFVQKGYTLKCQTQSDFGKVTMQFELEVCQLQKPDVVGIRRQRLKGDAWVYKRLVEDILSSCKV
UniProt Q9BZR8: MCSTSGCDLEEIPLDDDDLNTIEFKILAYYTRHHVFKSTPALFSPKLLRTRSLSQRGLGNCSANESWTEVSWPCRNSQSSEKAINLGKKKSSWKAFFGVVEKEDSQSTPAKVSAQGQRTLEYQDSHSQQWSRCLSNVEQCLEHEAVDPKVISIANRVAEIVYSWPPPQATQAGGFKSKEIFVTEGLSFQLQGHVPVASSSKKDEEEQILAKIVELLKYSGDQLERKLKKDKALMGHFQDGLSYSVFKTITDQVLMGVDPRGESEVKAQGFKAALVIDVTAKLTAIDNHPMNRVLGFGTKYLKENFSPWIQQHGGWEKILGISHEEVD
Flag-tagged Bcl-GL C-1 construct (amino acids 1 to 305): residues 1-305 of Q9BZR8
Flag-tagged Bcl-GL C-2 construct (amino acids 1 to 295): residues 1-295 of Q9BZR8
Flag-tagged Bcl-GL C-3 construct (amino acids 1 to 215): residues 1-215 of Q9BZR8
Flag-tagged Bcl-GL N-1 construct (amino acids 12 to 327): residues 12-327 of Q9BZR8
Flag-tagged Bcl-GL N-3 construct (amino acids 121 to 327): residues 121-327 of Q9BZR8
Flag-tagged Bcl-GL N-4 construct (amino acids 171 to 327): residues 171-327 of Q9BZR8

No constants are given. Whether binding was seen depends on the method and setting. For some of these results: In cells and extracts the contact can be indirect. Some entries that bind do so weakly or less than the wild type.

Experiment [1] addresses His-tagged wild-type MELK recombinant protein (human) (UniProt Q14680). As to the kind of experiment: pull-down; 0.5 uM His-tagged WT-MELK or D150A-MELK pre-immobilised on Ni-NTA agarose beads, incubated with 7.5 mg HBC4 cell lysate in 50 mM Tris-HCl pH 7.5, 50 uM ATP, 10 mM MgCl2, 25 mM NaCl, 1 mM DTT at 30°C for 5 minutes; SDS-PAGE, silver stain; band identified by MALDI-TOF mass spectrometry; only the target purified.

The target in experiment [2] is His-tagged kinase-dead MELK (D150A) recombinant protein (human) (UniProt Q14680). Described as above.
For experiment [3], the target named is Flag-tagged Bcl-GL N-1 construct (amino acids 12 to 327) (human) (UniProt Q9BZR8). Put plainly: co-IP; HeLa cells co-transfected with Flag-tagged Bcl-GL (full length or partial) and HA-tagged WT-MELK; lysate precipitated with anti-Flag M2 agarose at 4°C for 12 hours; blot with anti-HA.
Experiment [4] deals with Flag-tagged Bcl-GL C-3 construct (amino acids 1 to 215) (human) (UniProt Q9BZR8). Described as above.
Experiment [5] has as its target Flag-tagged Bcl-GL C-1 construct (amino acids 1 to 305) (human) (UniProt Q9BZR8). The experiment is described as above.
Experiment [6] has as its target Flag-tagged Bcl-GL C-2 construct (amino acids 1 to 295) (human) (UniProt Q9BZR8). The description is as above.
Experiment [7] deals with Flag-tagged Bcl-GL N-3 construct (amino acids 121 to 327) (human) (UniProt Q9BZR8). The description is as above.
In experiment [8] the target is Flag-tagged Bcl-GL N-4 construct (amino acids 171 to 327) (human) (UniProt Q9BZR8). The description is as above.
The target in experiment [9] is Flag-tagged full-length Bcl-GL (human) (UniProt Q9BZR8). The experiment is described as above.
Experiment [10] concerns the target His-tagged kinase-dead MELK (D150A) recombinant protein (human) (UniProt Q14680). As to the kind of experiment: condition: 5 μg of Bcl-GL recombinant protein in 500 μl; pull-down; in vitro binding assay: 10 ug His-tagged MELK held by anti-6XHis antibody on protein G Sepharose; 5 ug Bcl-GL recombinant protein in 500 ul binding buffer (50 mM Tris, 75 mM NaCl, 10 mM MgCl2, 1 mM DTT, 2% BSA, 100 uM ATP), 30 minutes at 4°C; blot with anti-Bcl-GL; both purified.

Turning to “Bcl-G (approximately 30 kDa protein from HBC4 cell lysate) (from UniProt Q9BZR8-1 1-327)”, the binding entry in experiment [1] was “binds”; in experiment [2], “no binding”.

In the case of “HA-tagged wild-type MELK (from UniProt Q14680-1 1-651) (enzyme)”, the binding entry in [3] is reported as “binds”; in experiment [4] it was “binds”; in experiment [5], “binds”; in [6], “binds”; in experiment [7], “no binding”; in [8], “no binding”. Moreover, in experiment [9], the binding result was “binds”.

With “Bcl-GL recombinant protein (GST removed) (from UniProt Q9BZR8-1 1-327)”, the binding entry in experiment [10] is “no binding”.
